Results published in PubChem BioAssay AID1745853 (National Center for Advancing Translational Sciences (NCATS), 2022).
“And” between values parts separate entries of the source, which are not always exact repeats. Equal entries are not always repeated. Some of the results follow. These are further read-outs of the screen, such as a control signal, another cell line or another target. No call is given for them.

Columns and labels:
Test in all cases: Primary Screen for Target Class Profiling of Small Molecule Inhibitors of Methyltransferases
[1] = target: Glycine N-methyltransferase (Homo sapiens) (UniProt Q14749); details: purified enzyme, MTase-Glo SAH luminescence; measured here: GNMT inhibition; at 40 µM; stronger effect = lower value
Procedure, shortened: (§1)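 Each enzyme was reacted with SAM and its substrate, with compounds tested once at 40 uM; SAH formed was read by MTase-Glo luminescence.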

[2] = target: Guanidinoacetate N-methyltransferase (Homo sapiens) (UniProt Q14353); details: purified enzyme, MTase-Glo SAH luminescence; measured here: GAMT inhibition; at 40 µM; stronger effect = lower value
Procedure, shortened: as §1

[3] = target: Histamine N-methyltransferase (Homo sapiens) (UniProt P50135); details: purified enzyme, MTase-Glo SAH luminescence; measured here: HNMT inhibition; at 40 µM; stronger effect = lower value
Procedure, shortened: as §1

[4] = target: Nicotinamide N-methyltransferase (Homo sapiens) (UniProt P40261); details: purified enzyme, MTase-Glo SAH luminescence; measured here: NNMT inhibition; at 40 µM; stronger effect = lower value
Procedure, shortened: as §1

[5] = target: Phenylethanolamine N-methyltransferase (Homo sapiens) (UniProt P11086); details: purified enzyme, MTase-Glo SAH luminescence; measured here: PNMT inhibition; at 40 µM; stronger effect = lower value
Procedure, shortened: as §1
% is scaled to controls: 0 for no effect and ±100 for the full control effect.

Compound	activity change, negative = inhibition [1]	activity change, negative = inhibition [2]	activity change, negative = inhibition [3]	activity change, negative = inhibition [4]	activity change, negative = inhibition [5]
COc1ccc(C2c3cccn3-c3ccccc3CN2C(=O)Nc2cccc(C)c2C)cc1 (configuration not stated)	12%	1.95%	5.68%	-1.22%	5.73%
C/C=C(\C)C(=O)OC1CC2C(CC=C3CC(OC4CC(OC)C(OC5CC(OC)C(OC6OC(C)C(OC7OC(CO)C(O)C(O)C7O)C(OC)C6O)C(C)O5)C(C)O4)CCC32C)C2(O)CCC(C(C)=O)C12C (configuration not stated)	7.25%	21.9%	12%	4.45%	8.9%
CC[C@@]1(O)C(=O)OCc2c1cc1n(c2=O)Cc2cc3ccccc3nc2-1	-11.7%	8.43%	7.75%	-8.91%	-0.98%
CO/C1=C\C(C)=C\[C@@H](C)[C@@H](O)[C@@H](C)C/C(C)=C/C=C/[C@H](OC)[C@@H]([C@@H](C)[C@@H](O)[C@H](C)[C@@]2(O)C[C@@H](O)[C@H](C)[C@@H](C(C)C)O2)OC1=O	2.56%	–	10.7%	–	–
O=C(Nc1ccc(Br)cc1)N1Cc2ccccc2-n2cccc2C1c1cccs1 (configuration not stated)	12.7%	1.3%	6.61%	1.06%	6.78%
N#C/C(=C/c1ccc(O)c(O)c1)C(N)=S	-66.3%	4.33%	4.05%	-10.6%	-3.05%
Cc1ccc(NC(=O)N2Cc3ccccc3-n3cccc3C2c2ccc(N(C)C)cc2)c(C)c1 (configuration not stated)	7.25%	2.09%	4.08%	2.24%	-10.7%
CCCC[N+]1(C)[C@@H]2CC(OC(=O)[C@H](CO)c3ccccc3)C[C@H]1[C@@H]1O[C@@H]12 (some centres not stated)	1.56%	0.638%	3.93%	-8.55%	-4.35%
CC(C)CC(=O)N1CC[C@@H]2COCCN(C)[C@@H]2C1	-3.02%	-7.95%	-1.71%	-7.86%	-7.03%
CN1C2CCC1CC(OC(=O)N1Cc3ccccc3NC1=O)C2 (configuration not stated)	-1.22%	6.9%	10.6%	-6.84%	4.59%
C[C@H]1C2Cc3ccc(O)cc3[C@@]1(C)CCN2CC1CC1	5.06%	9.95%	-40.5%	-4.56%	5.42%
Cc1cccc(NC(=O)N2Cc3ccccc3-n3cccc3C2c2cccc(C)c2)c1 (configuration not stated)	5.52%	8.01%	4.4%	2.57%	2.32%
CSc1ccc(C2c3cccn3-c3ccccc3CN2C(=O)Nc2ccc(C)cc2Cl)cc1 (configuration not stated)	1.1%	0%	0.552%	-0.327%	4.67%
Cc1ccc(NC(=O)N2Cc3ccccc3-n3cccc3C2c2ccc(Cl)cc2)c(C)c1 (configuration not stated)	-0.85%	1.71%	4.2%	8.13%	9.01%
CCC(C)/C=C(C)/C=C/C1=CC2=C(Cl)C(=O)C(C)(OC(C)=O)C(=O)C2=CO1 (configuration not stated)	-39.3%	-3.73%	-9.28%	-19.4%	-4.6%
CCOC(=O)c1ccc(NC(=O)N2Cc3ccccc3-n3cccc3C2C)cc1 (configuration not stated)	7.04%	0.289%	2.24%	1.16%	4.07%
CC1CCCC(O)CC(=O)Cc2cc(O)cc(O)c2C(=O)O1 (configuration not stated)	5.62%	5.61%	5.9%	-5.58%	2.88%
COc1ccc(C(C)(C)C)cc1CN[C@H]1C2CCN(CC2)[C@H]1C(c1ccccc1)c1ccccc1	-1%	4.26%	-2.54%	-21.2%	-11.2%
CCOCCCNC(=O)N1Cc2ccccc2-n2cccc2C1CC (configuration not stated)	-0.887%	-1.75%	2.34%	-2.88%	7.1%
CSc1ccc(C2c3cccn3-c3ccccc3CN2C(=O)NCc2ccc(F)cc2)cc1 (configuration not stated)	-5.55%	4.28%	-6.61%	-10.2%	-1.18%
C[C@]12Cc3cn4c(nc3C=C1CCC1C2CC[C@@]2(C)[C@H]1CC[C@@]2(O)C#N)nc1ccccc14 (some centres not stated)	-37.7%	8.67%	-4.6%	-8.31%	-3.56%
CC12CCC3C(CCC4(O)CC(O)CCC34C=O)C1(O)CCC2C1=CC(=O)OC1 (configuration not stated)	2.98%	0.143%	11.6%	-6.2%	6.08%
COc1ccc(Cl)cc1NC(=O)N1Cc2ccccc2-n2cccc2C1C (configuration not stated)	5.5%	1.57%	-0.027%	-5%	1.09%
COc1ccc(NC(=O)N2Cc3ccccc3-n3cccc3C2c2cccc(Cl)c2)c(OC)c1 (configuration not stated)	8.64%	1.13%	3.31%	2.06%	4.33%
CCNC(=O)C[C@@H]1N=C(c2ccc(Cl)cc2)c2cc(OC)ccc2-n2c(C)nnc21	2.39%	0.252% and 2.65%	6.77%	-15% and -15.2%	-4.53% and 4.89%
CCc1ccc(NC(=O)N2Cc3ccccc3-n3cccc3C2c2ccccc2C)cc1 (configuration not stated)	12.4%	0%	10.3%	10.1%	6.22%
O=C(Nc1ccc2n(c1=O)C[C@H]1C[C@@H]2CN(C(=O)c2ccccn2)C1)C1CCCCC1	-7.68%	-7.82%	-2.14%	-16.7%	0.525%
CCC(C)(O)C1(C(=O)O)COC(=O)C1 (configuration not stated)	2.9%	4.37%	12.8%	-8.25%	5.31%
CN(C)C(=O)CC1CCOC2(CCNCC2)C1 (configuration not stated)	-5.08%	-9.42%	-2.54%	-14.4%	4.04%
O=C(NCc1ccc(F)cc1)N1Cc2ccccc2-n2cccc2C1c1cc(F)cc(F)c1 (configuration not stated)	9.58%	0.827%	3.03%	2.3%	5.24%
